Experimental findings from the supplement of paper PMC3334620 are described below.

The full ranking holds about 33,000 sequences; the median of “E-score (-0.5 to 0.5)” is about -0.041, and the highest 2% start at about 0.37. This is one part of the list.

For the experiment, the target named is T1, Ecm22 (UniProt Q05958).
T1 sequence: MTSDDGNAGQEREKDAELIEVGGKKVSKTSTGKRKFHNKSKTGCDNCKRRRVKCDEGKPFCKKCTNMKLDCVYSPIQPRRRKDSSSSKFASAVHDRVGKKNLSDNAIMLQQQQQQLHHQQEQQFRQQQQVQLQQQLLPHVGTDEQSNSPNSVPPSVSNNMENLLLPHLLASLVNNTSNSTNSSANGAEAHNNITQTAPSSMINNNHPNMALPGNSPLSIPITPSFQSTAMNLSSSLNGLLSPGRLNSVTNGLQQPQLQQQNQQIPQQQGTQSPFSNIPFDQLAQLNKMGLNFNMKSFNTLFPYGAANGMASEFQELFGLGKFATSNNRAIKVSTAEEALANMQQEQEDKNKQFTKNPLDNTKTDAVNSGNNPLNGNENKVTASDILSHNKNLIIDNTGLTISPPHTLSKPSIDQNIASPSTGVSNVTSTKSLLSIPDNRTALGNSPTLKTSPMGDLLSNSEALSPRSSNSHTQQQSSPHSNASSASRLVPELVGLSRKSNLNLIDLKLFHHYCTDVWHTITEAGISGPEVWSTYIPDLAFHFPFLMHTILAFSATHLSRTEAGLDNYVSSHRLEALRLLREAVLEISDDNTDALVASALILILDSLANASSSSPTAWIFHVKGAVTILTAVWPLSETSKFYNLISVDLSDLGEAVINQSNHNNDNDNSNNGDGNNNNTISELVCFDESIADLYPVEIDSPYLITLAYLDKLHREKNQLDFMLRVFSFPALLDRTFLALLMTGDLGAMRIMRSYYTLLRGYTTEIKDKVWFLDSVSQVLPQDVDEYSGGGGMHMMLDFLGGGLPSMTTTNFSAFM
The experiment in a line: PBM E-score (8-mer binding enrichment) (E-score (-0.5 to 0.5)); higher = stronger / more preferred TF binding; most listed sequences are background and not binding sites. The settings on record: protein concentration: 200 nM; construct: GST-full length. As to the method:
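Universal 'all 10-mer' protein binding microarrays (Agilent AMADID 015681) probed with GST-tagged S. cerevisiae TFs (full-length or DBD) made by in vitro transcription/translation (PURExpress), about 100-200 nM. Bound TF was detected with fluorescent anti-GST. Each ungapped 8-mer (which stands for itself and its reverse complement) is scored by the PBM enrichment score (E-score), a modified Wilcoxon-Mann-Whitney statistic from -0.5 to +0.5, computed with the Universal PBM Analysis Suite. Scale: above 0.35 generally sequence-specific binding.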
As to TAACTTCA, the “PBM E-score” value turned out to be 0.0176.
As to CTGTTGTA, the “PBM E-score” value was -0.103.
Take AAAGAACA: the “PBM E-score” value is -0.129.
As to CAGATTAG, the “PBM E-score” value was -0.218.
Turning to CGGGAAAA, the “PBM E-score” value turned out to be 0.137.
Turning to CCTATAAA, the “PBM E-score” value is -0.0954.
Consider GCCGGCGA, for which the “PBM E-score” value was -0.117.
CCAGTGCC: the “PBM E-score” value is -0.0678.
Consider ATTTTGCA, for which the “PBM E-score” value was -0.0799.
In the case of GACCGGCC, the “PBM E-score” value was -0.0673.
Regarding AGCCGTAT, the “PBM E-score” value was 0.315.
For the sequence AATCAAAA, the “PBM E-score” value is -0.0669.
On to CCGCGCAC, for which the “PBM E-score” value is -0.0362.
Take ACGTAGTC: the “PBM E-score” value is -0.158.
On to CCCGCCGG, for which the “PBM E-score” value was -0.202.
For CAATTAAC, the “PBM E-score” value came to 0.0679.
For GAGGCAGA, the “PBM E-score” value was -0.0134.
As for ACGCAGCC, the “PBM E-score” value is 0.00221.
Regarding AAAAGCCG, the “PBM E-score” value worked out at 0.0262.
Regarding AAATTAGT, the “PBM E-score” value is -0.0384.
Take ATAGAACA: the “PBM E-score” value was -0.174.
As to CCTGTTAA, the “PBM E-score” value is -0.317.
In the case of AGAGTGTA, the “PBM E-score” value was -0.138.
AAAGGTCT: the “PBM E-score” value was -0.0115.
For AGCGGCAG the value was -0.134; for CCAATCAG, -0.212; for CGTCACTA, -0.0261.
Take ACTAAGGC: the “PBM E-score” value is -0.282.
Regarding ACCTTTAG, the “PBM E-score” value was -0.154.
As for CCGTGTTA, the “PBM E-score” value is -0.0133.
With ATGTACTA, the “PBM E-score” value amounted to 0.0275.
The result for GTAGCGGA reads 0.224; that for CTGGTCGC, -0.0227; that for CGTCGGGA, 0.186.
As for ATTGGCAA, the “PBM E-score” value was -0.038.
For the sequence ATTTCCCG, the “PBM E-score” value was determined as 0.133.
For ACGCGGAT the value was 0.215.
For TAGAGGAA the value was -0.124; for AAAGCGCT, 0.0332; for ATCACGCA, -0.116.
For GCTTGACA the value was -0.217; for AACTGTGT, -0.0758; for AGCAAGCA, -0.15.
GGTTACCA: the “PBM E-score” value turned out to be 0.0711.
With CGAGCAAC, the “PBM E-score” value is 0.168.
Regarding TCCATGAA, the “PBM E-score” value is -0.0563.
As to GACGCTGA, the “PBM E-score” value is -0.0977.
For GCCCCCGC the value was -0.055; for ACGGCCAT, 0.0573; for GTCGATTA, 0.117.
Turning to TCACGTAA, the “PBM E-score” value was found to be 0.00322.
For the sequence CGGCCAAA, the “PBM E-score” value was -0.0669.
For ATTGTTAA the value was 0.00013; for CACCGCTA, -0.0955; for CTGTTAAG, -0.229.
Regarding CTATCCCA, the “PBM E-score” value is -0.0728.
The result for ACCTATGG reads -0.153.
Regarding GAGAAACC, the “PBM E-score” value was -0.034.
With CCTCCTTA, the “PBM E-score” value is 0.032.
As for AGTAATTA, the “PBM E-score” value was -0.26.
Turning to AGACGAGG, the “PBM E-score” value was 0.202.
With ACGTGTGA, the “PBM E-score” value is -0.172.
The result for AACTCTTC reads 0.0679; that for TAAACGTA, 0.38.
As for ATCGCGTA, the “PBM E-score” value was determined as 0.191.
Take ATAACGCC: the “PBM E-score” value was -0.051.
For the sequence ACTGTTCG, the “PBM E-score” value turned out to be 0.17.
AACCGGTG: the “PBM E-score” value was determined as 0.0496.
With TAGTTTGA, the “PBM E-score” value was found to be 0.187.
For CTCGTACA the value was 0.489; for GCTGGGCC, -0.213; for CGGGAATC, -0.041.
For the sequence TATTCACA, the “PBM E-score” value was -0.0158.
The result for CACTCGCG reads 0.107; that for ATGTGGAA, 0.0668.
Consider GGAATAAC, for which the “PBM E-score” value was determined as 0.0574.
Turning to CTGGTTAA, the “PBM E-score” value is -0.0304.
With CCTCTTAG, the “PBM E-score” value was -0.0405.
With ACTTCAGA, the “PBM E-score” value was -0.0484.
With TAGCGCCA, the “PBM E-score” value is -0.154.
On to CGGTCAAC, for which the “PBM E-score” value worked out at 0.169.
For the sequence GACAACCA, the “PBM E-score” value worked out at 0.0407.
With CAACTGAG, the “PBM E-score” value was determined as 0.0787.
Regarding TAGGGATA, the “PBM E-score” value was -0.165.
On to GAAGCCGA, for which the “PBM E-score” value is -0.0879.
Regarding AGACGCCG, the “PBM E-score” value worked out at 0.0356.
